Assay results taken from the supplement of paper PMC7125110.
Variants at the background level are over-represented here.

B1: glmS ribozyme (parent)
chain: AUAAAAGCGCCAGAACUACAGAAAUGUAGUUGACGAGGAGGAGGUUUAUCGAAUUUUCGGCGGAUGCCUCCAAA

Experiments:
Settings in all cases: with glucosamine-6-phosphate
[1] = variants of: B1; assay: self-cleavage kobs at 40 uM GlcN6P; higher = faster cleavage; RNA array
In short: (§1)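 Ribozyme variants carrying barcodes were transcribed in situ on sequenced MiSeq chips by E. coli RNA polymerase and tracked at 37 °C with a hybridised Cy3 probe. They were exposed to 40 μM to 10 mM glucosamine-6-phosphate in HEPES/KCl/Mg(OAc)2 buffer. kobs came from exponential decay fits of normalised per-tile medians, and kcat and KM from weighted Michaelis–Menten fits.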

[2] = variants of: B1; assay: self-cleavage kobs at 160 uM GlcN6P; higher = faster cleavage; RNA array
In short: as §1

[3] = variants of: B1; assay: self-cleavage kobs at 2500 uM GlcN6P; higher = faster cleavage; RNA array
In short: as §1

[4] = variants of: B1; assay: self-cleavage kobs at 640 uM GlcN6P; higher = faster cleavage; RNA array
In short: as §1

[5] = variants of: B1; assay: self-cleavage kobs at 10000 uM GlcN6P; higher = faster cleavage; RNA array
In short: as §1

AUAAAAGCGCCAGAACUACAGAAAUGUAGUUGACGAGCCGGAGGUUUAUCGAAUUUUCGGCGGAUGCCUCCAAA
< 1e-05 s⁻¹: self-cleavage kobs at 40 uM GlcN6P [1] | self-cleavage kobs at 160 uM GlcN6P [2] | self-cleavage kobs at 2500 uM GlcN6P [3]

AUAAAAGCGCCAGAACUACAGAAAUGUAGUUGACGAGCAGGUGGUUUAUCGAAUUUUCGGCGGAUGCCUCCAAA
< 1e-05 s⁻¹: self-cleavage kobs at 40 uM GlcN6P [1] | self-cleavage kobs at 640 uM GlcN6P [4] | self-cleavage kobs at 160 uM GlcN6P [2] | self-cleavage kobs at 2500 uM GlcN6P [3]

AUAAAAGCGCCAGAACUACAGAAAUGUAGUUGACGAGCAGGAGGUUUAUCGUAUUUUCGGCGGAUGCCUCCAAA
< 1e-05 s⁻¹: self-cleavage kobs at 40 uM GlcN6P [1] | self-cleavage kobs at 640 uM GlcN6P [4] | self-cleavage kobs at 10000 uM GlcN6P [5]

AUAAAAGCGCCAGAACUACAGAAAUGUAGUUGACGAGCAGGAGGUUUAUCGAGUUUUCGGCGGAUGCCUCCAAA
< 1e-05 s⁻¹: self-cleavage kobs at 40 uM GlcN6P [1] | self-cleavage kobs at 160 uM GlcN6P [2]

AUAAAAGCGCCAGAACUACAGAAAUGUAGUUGACGAGCAGGAGGUUUAUCGAAUUUUCGGGGGAUGCCUCCAAA
< 1e-05 s⁻¹: self-cleavage kobs at 40 uM GlcN6P [1] | self-cleavage kobs at 640 uM GlcN6P [4] | self-cleavage kobs at 2500 uM GlcN6P [3]

AUAAAAGCGCCAGAACUACAGAAAUGUAGUUGACGAGCAGGAGGUUUAUCGAAUUUUCGGUGGAUGCCUCCAAA
< 1e-05 s⁻¹: self-cleavage kobs at 40 uM GlcN6P [1] | self-cleavage kobs at 640 uM GlcN6P [4] | self-cleavage kobs at 160 uM GlcN6P [2]

AUAAAAGCGCCAGAACUACAGAAAUGUAGUUGACGAGCACGAGGUUUAUCGAAUUUUCGGCGGAUGCCUCCAAA
< 1e-05 s⁻¹: self-cleavage kobs at 40 uM GlcN6P [1] | self-cleavage kobs at 640 uM GlcN6P [4] | self-cleavage kobs at 160 uM GlcN6P [2] | self-cleavage kobs at 2500 uM GlcN6P [3] | self-cleavage kobs at 10000 uM GlcN6P [5]

AUAAAAGCGCCAGAACUACAGAAAUGUAGUUGACGAGCACGAGGUUUAUCGAAUUUUCGGCGGUUGCCUCCAAA
< 1e-05 s⁻¹: self-cleavage kobs at 40 uM GlcN6P [1] | self-cleavage kobs at 10000 uM GlcN6P [5]

AUAAAAGCGCCAGAACUACAGAAAUGUAGUUGACGAGCAGAAGGUUUAUCGAAUUUUCGGCGGAUGCCUCCAAA
< 1e-05 s⁻¹: self-cleavage kobs at 40 uM GlcN6P [1] | self-cleavage kobs at 640 uM GlcN6P [4] | self-cleavage kobs at 160 uM GlcN6P [2] | self-cleavage kobs at 2500 uM GlcN6P [3]

AUAAAAGCGCCAGAACUACAGAAAUGUAGUUGACGAGCAGAAUCUUUAUGGAAUUUUCGGCGGAUGCCUCCAAA
< 1e-05 s⁻¹: self-cleavage kobs at 40 uM GlcN6P [1] | self-cleavage kobs at 10000 uM GlcN6P [5]

AUAAAAGCGCCAGAACUACAGAAAUGUAGUUGACGAGCAGCAGGUUUAUCGAAUUUUCGGCGGAUGCCUCUAAA
< 1e-05 s⁻¹: self-cleavage kobs at 40 uM GlcN6P [1] | self-cleavage kobs at 10000 uM GlcN6P [5]

AUAAAAGCGCCAGAACUACAGAAAUGUAGUUGACGAGCAGCAUGUUUAUCGAAUUUUCGGCGGAUGCCUCCAAA
< 1e-05 s⁻¹: self-cleavage kobs at 40 uM GlcN6P [1] | self-cleavage kobs at 640 uM GlcN6P [4] | self-cleavage kobs at 160 uM GlcN6P [2] | self-cleavage kobs at 2500 uM GlcN6P [3] | self-cleavage kobs at 10000 uM GlcN6P [5]
